Test results: publication PMC6794377
Substitutions are numbered along the chain they refer to. No constants are given. Whether binding was seen depends on the method and setting. In cells and extracts the contact can be indirect. Some results given as binding are weak or reduced against the parent protein; the word gives no strength. Sequences can lack the tags named with a protein. One block for each binder: values may come before it.

What was measured:
[1] = molecular target: T1, hThrRS-L-Y457D with a C-terminal FLAG tag (human) (UniProt A2RTX5); test: co-IP; FLAG-tagged hThrRS-L or mutant expressed in HeLa cells; IP with anti-FLAG; endogenous partners detected by western blotting
T1 sequence: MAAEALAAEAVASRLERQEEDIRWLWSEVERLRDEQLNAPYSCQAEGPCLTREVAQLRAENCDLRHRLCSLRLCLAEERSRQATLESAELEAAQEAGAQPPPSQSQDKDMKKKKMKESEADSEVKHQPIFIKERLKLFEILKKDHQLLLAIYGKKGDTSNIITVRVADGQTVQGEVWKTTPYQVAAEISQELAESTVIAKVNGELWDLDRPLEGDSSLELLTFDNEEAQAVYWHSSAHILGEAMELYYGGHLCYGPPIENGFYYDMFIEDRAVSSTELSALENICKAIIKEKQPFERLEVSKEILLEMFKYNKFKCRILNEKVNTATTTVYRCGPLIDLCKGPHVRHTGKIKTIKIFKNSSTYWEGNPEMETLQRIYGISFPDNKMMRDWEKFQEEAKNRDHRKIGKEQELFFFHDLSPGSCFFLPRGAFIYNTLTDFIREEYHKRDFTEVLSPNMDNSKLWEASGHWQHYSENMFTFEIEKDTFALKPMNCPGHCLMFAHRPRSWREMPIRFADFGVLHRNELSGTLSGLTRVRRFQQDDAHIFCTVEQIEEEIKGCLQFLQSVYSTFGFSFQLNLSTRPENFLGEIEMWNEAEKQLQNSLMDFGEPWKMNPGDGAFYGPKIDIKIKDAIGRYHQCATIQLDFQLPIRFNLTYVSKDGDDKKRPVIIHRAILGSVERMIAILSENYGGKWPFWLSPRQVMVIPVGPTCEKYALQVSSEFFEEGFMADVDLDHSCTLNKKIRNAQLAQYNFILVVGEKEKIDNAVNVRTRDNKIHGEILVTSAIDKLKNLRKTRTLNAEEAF

[2] = molecular target: T2, C-terminal FLAG-tagged human threonyl-tRNA synthetase-like protein (hThrRS-L-FLAG) (human) (UniProt A2RTX5); test: as above
T2 sequence: T1 sequence with D457Y

[3] = molecular target: T3, hThrRS-L-T163D with a C-terminal FLAG tag (human) (UniProt A2RTX5); test: co-IP; FLAG-tagged hThrRS-L or mutant overexpressed in HEK293T; IP with anti-FLAG, Dynabeads protein G, 4°C; endogenous partners detected by western blotting
T3 sequence: T1 sequence with T163D, D457Y

binding [1]: binds | binding [2]: binds | binding [3]: binds
B1: native p43 (AIMP1), endogenous in human cells (protein, UniProt Q12904-2 1-336)
chain: MLPAVAVSEPVVLRFMIFCRLLAKMANNDAVLKRLEQKGAEADQIIEYLKQQVSLLKEKAILQATLREEKKLRVENAKLKKEIEELKQELIQAEIQNGVKQIPFPSGTPLHANSMVSENVIQSTAVTTVSSGTKEQIKGGTGDEKKAKEKIEKKGEKKEKKQQSIAGSADSKPIDVSRLDLRIGCIITARKHPDADSLYVEEVDVGEIAPRTVVSGLVNHVPLEQMQNRMVILLCNLKPAKMRGVLSQAMVMCASSPEKIEILAPPNGSVPGDRITFDAFPGEPDKELNPKKKIWEQIQPDLHTNDECVATYKGVPFEVKGKGVCRAQTMSNSGIK

binding [3]: binds
B2: native hThrRS, endogenous in HEK293T (enzyme, UniProt P26639 1-723)
chain: MFEEKASSPSGKMGGEEKPIGAGEEKQKEGGKKKNKEGSGDGGRAELNPWPEYIYTRLEMYNILKAEHDSILAEKAEKDSKPIKVTLPDGKQVDAESWKTTPYQIACGISQGLADNTVIAKVNNVVWDLDRPLEEDCTLELLKFEDEEAQAVYWHSSAHIMGEAMERVYGGCLCYGPPIENGFYYDMYLEEGGVSSNDFSSLEALCKKIIKEKQAFERLEVKKETLLAMFKYNKFKCRILNEKVNTPTTTVYRCGPLIDLCRGPHVRHTGKIKALKIHKNSSTYWEGKADMETLQRIYGISFPDPKMLKEWEKFQEEAKNRDHRKIGRDQELYFFHELSPGSCFFLPKGAYIYNALIEFIRSEYRKRGFQEVVTPNIFNSRLWMTSGHWQHYSENMFSFEVEKELFALKPMNCPGHCLMFDHRPRSWRELPLRLADFGVLHRNELSGALTGLTRVRRFQQDDAHIFCAMEQIEDEIKGCLDFLRTVYSVFGFSFKLNLSTRPEKFLGDIEVWDQAEKQLENSLNEFGEKWELNSGDGAFYGPKIDIQIKDAIGRYHQCATIQLDFQLPIRFNLTYVSHDGDDKKRPVIVHRAILGSVERMIAILTENYGGKWPFWLSPRQVMVVPVGPTCDEYAQKVRQQFHDAKFMADIDLDPGCTLNKKIRNAQLAQYNFILVVGEKEKISGTVNIRTRDNKVHGERTISETIERLQQLKEFRSKQAEEEF

binding [1]: binds | binding [2]: binds | binding [3]: binds
B3: ArgRS, endogenous in human cells (enzyme, UniProt P54136 1-660)
chain: MDVLVSECSARLLQQEEEIKSLTAEIDRLKNCGCLGASPNLEQLQEENLKLKYRLNILRKSLQAERNKPTKNMINIISRLQEVFGHAIKAAYPDLENPPLLVTPSQQAKFGDYQCNSAMGISQMLKTKEQKVNPREIAENITKHLPDNECIEKVEIAGPGFINVHLRKDFVSEQLTSLLVNGVQLPALGENKKVIVDFSSPNIAKEMHVGHLRSTIIGESISRLFEFAGYDVLRLNHVGDWGTQFGMLIAHLQDKFPDYLTVSPPIGDLQVFYKESKKRFDTEEEFKKRAYQCVVLLQGKNPDITKAWKLICDVSRQELNKIYDALDVSLIERGESFYQDRMNDIVKEFEDRGFVQVDDGRKIVFVPGCSIPLTIVKSDGGYTYDTSDLAAIKQRLFEEKADMIIYVVDNGQSVHFQTIFAAAQMIGWYDPKVTRVFHAGFGVVLGEDKKKFKTRSGETVRLMDLLGEGLKRSMDKLKEKERDKVLTAEELNAAQTSVAYGCIKYADLSHNRLNDYIFSFDKMLDDRGNTAAYLLYAFTRIRSIARLANIDEEMLQKAARETKILLDHEKEWKLGRCILRFPEILQKILDDLFLHTLCDYIYELATAFTEFYDSCYCVEKDRQTGKILKVNMWRMLLCEAVAAVMAKGFDILGIKPVQRM
